# Measured values taken from PubChem BioAssay AID624296 (National Center for Advancing Translational Sciences (NCATS), 2012).
# Where “and” joins values, the source holds several entries; their conditions need not be identical. Equal values may be shown once. Hit rate of the full screen: of about 350,000 compounds, about 9,900 (2.8%) were called active. Inconclusive means that the source gave no clear call. Such entries were picked first, then a sample of the others. Calls come from the whole dose curve; as a rule, active = well fitted activation curve with a large enough effect; inconclusive = small, poorly fitted or top-dose-only effect; inactive = no such curve, though single readings can be large or run the other way. A potency beside an inconclusive call is a rough fit, not a confirmed value.
# Experiment: A quantitative high throughput screen for small molecules that induce DNA re-replication in MCF 10a normal breast cells. Note: nearly all actives have a fitted effect of over 50% in size.
# Settings: MCF 10A DNA re-replication, Hoechst nuclear intensity, 48 h; series mostly up to 46.1 µM
# Potency is the fitted concentration of half-maximal effect; tags give direction and shape of the fitted curve.
row,Structure (SMILES),Potency
1,Cc1ccc2nc(CSc3nc(C)ccc3C#N)[nH]c2c1,"inconclusive: 20 µM [activator, single point]"
2,COc1ccc(Nc2cc(C)c3ccccc3n2)cc1,inactive
3,Cc1ccc(C)c(N2CCN(C(=O)c3cccn4c(=O)c5sccc5nc34)CC2)c1,"inconclusive: 18.4 µM [activator, single point]"
4,O=C(Oc1cccnc1)c1cc(S(=O)(=O)N2CCCCC2)ccc1Cl,"inconclusive: 18.4 µM [activator, partial curve, poor fit]"
5,CCc1ccc([C@@H]2CC=C(C(=O)O)[C@H](c3cccc(Cl)c3)N2S(=O)(=O)c2ccc(C)cc2)cc1,inactive
6,CCC(=O)c1ccc(OCC(=O)Nc2cccc(S(=O)(=O)N(C)c3ccccc3)c2)cc1,inactive
7,COCCN1CCN(C(=O)c2cc(COc3ccc(F)cc3Cl)on2)CC1,"inconclusive: 29.1 µM [activator, single point]"
8,COC(=O)C(C(=O)OC)C(C(=O)OC)C(C(=O)OC)C(=O)OC,"inconclusive: 0.116 µM [activator, full curve, poor fit]"
9,CCc1cc(C(=O)N2CCN(c3ncc(C(F)(F)F)cc3Cl)CC2)sc1C,"inconclusive: 23.1 µM [activator, partial curve, poor fit]"
10,CCN(CC)S(=O)(=O)c1ccc(N2CCc3ccccc3C2)nc1,"inconclusive: 20.6 µM [activator, single point]"
11,O=C(N/N=C/c1ccc([N+](=O)[O-])o1)c1ccc(O)cc1,"inconclusive: 2.06 µM [activator, partial curve, poor fit]"
12,O=C(NC(=S)Nc1cc([N+](=O)[O-])ccc1O)c1ccc2c(c1)OCO2,active: 13 µM
13,Nc1ccc2c(c1)Cc1c(F)cccc1-2,inactive
14,CC(CCc1ccccc1)NC(=O)CCNC(=O)Cn1ccc2ccccc2c1=O (stereo not given),inactive
15,Cc1nc(-c2ccc(Cl)cc2)sc1C1(C)CC(c2cccc(F)c2)=NO1 (stereo not given),"inconclusive: 29.1 µM [activator, single point]"
16,COc1ccc(N(C)S(=O)(=O)c2ccc(Cl)c(C(=O)NCCc3ccc(Cl)cc3)c2)cc1,"inconclusive: 23.1 µM [activator, partial curve, poor fit]"
17,O=[N+]([O-])/C=C\c1ccc(N2CCCC2)c(F)c1,active: 18.4 µM
18,Cc1ccc2c(c1)c(C1=NC(=S)NC1=O)c(O)n2C,inactive
19,COc1ccc(-c2nc3ccc(C(=O)NCCCN4CCOCC4)cc3nc2-c2ccc(OC)cc2)cc1,"inconclusive: 6.51 µM [activator, single point]"
20,O=C(O)CSc1c(O)c2ccccc2[nH]c1=O,"inconclusive: 25.9 µM [activator, single point]"

row,Structure (SMILES),Potency
1,CCCCOc1ccc(-c2nnn(CC(=O)NCCc3c[nH]c4ccccc34)n2)cc1,"inconclusive: 18.4 µM [activator, single point]"
2,COC(=O)CCC(=O)c1oc2ccc(Cl)cc2c1NC(=O)CCCN1C(=O)c2ccccc2C1=O,"inconclusive: 29.1 µM [activator, single point]"
3,CCOc1ccc(-c2cn3ccccc3n2)cc1[N+](=O)[O-],active: 20.6 µM
4,Cc1ccc(NC(=O)CN2C(=O)S/C(=C\c3cccn3C)C2=O)cc1,"inconclusive: 0.184 µM [activator, full curve, poor fit]"
5,NS(=O)(=O)c1ccc(NC(=O)COC(=O)c2c3c(nc4ccccc24)/C(=C\c2ccc4c(c2)OCO4)CCC3)cc1,"inconclusive: 9.2 µM [activator, single point] and inconclusive: 20.6 µM [activator, single point]"
6,C=CCN(c1ccccc1)S(=O)(=O)c1ccc(Cl)c(C(=O)OCC(=O)N(C)C2CCS(=O)(=O)C2)c1 (stereo not given),"inconclusive: 29.1 µM [activator, single point]"
7,CCOC(=O)[C@H]1[C@H]2COc3ccc(OC)cc3[C@@H]2N2C(=O)c3cc(OC)ccc3NC(=O)[C@@]12C,inactive
8,COc1ccc(CCNC(=O)c2nnn(-c3cc(C)cc(C)c3)c2N)cc1OC,inactive
9,NC(=O)c1ccc(NC(=O)COC(=O)c2ccc(Cl)nc2)cc1,"inconclusive: 32.6 µM [activator, partial curve, poor fit]"
10,O=C(CCCCCNC(=O)N1CCn2c1nc1ccccc12)NCc1ccccc1Cl,inactive
11,O=C(Nc1ccc2oc(-c3ccccc3)nc2c1)c1cccnc1,"inconclusive: 20.6 µM [activator, partial curve, poor fit]"
12,CC(C)(C)NC(=O)[C@H]1CN(Cc2cccnc2)CCN1C[C@@H](O)C[C@@H](Cc1ccccc1)C(=O)N[C@H]1c2ccccc2C[C@H]1O,"inconclusive: 33.5 µM [activator, single point]"
13,CC(C)(C)Cc1nnc(NS(=O)(=O)c2ccc([N+](=O)[O-])cc2)s1,"inconclusive: 6.51 µM [activator, single point]"
14,Cc1ccc(S(=O)(=O)Nc2cccc3cccnc23)cc1,"inconclusive: 20.6 µM [activator, single point]"
15,Cc1nn(-c2ccccc2)c(C)c1C(=O)OC(C)C(=O)NC1CCCCC1 (stereo not given),"inconclusive: 3.26 µM [activator, full curve, poor fit]"
16,COc1ccc(Nc2cnn(-c3nc4ccccc4s3)c(=O)c2Cl)cc1,"inconclusive: 18.4 µM [activator, single point]"
17,COc1ccc(Cl)cc1NC(=O)CN(C)C(=O)c1ccc(COc2ccccc2)cc1,"inconclusive: 14.6 µM [activator, single point]"
18,COc1ccc(N/N=C(\C#N)C(=N)SCc2ccccc2)cc1,"inconclusive: 20.6 µM [activator, single point]"
19,COc1ccc(Cl)cc1NC(=O)C(=O)N/N=C/c1cc(C)n(-c2ccc(C)cc2)c1C,"inconclusive: 25.9 µM [activator, single point]"
20,COc1ccc2c(c1)C=C(CN1CCN(C(C)C)C(CCO)C1)CO2 (stereo not given),"inconclusive: 18.4 µM [activator, partial curve]"
